Laboratory results: PubChem BioAssay AID504333 (National Center for Advancing Translational Sciences (NCATS), 2011)
“And” between values parts separate entries of the source, which are not always exact repeats. Identical values can stand only once. The campaign covered roughly 360,000 compounds. About 16,000 (4.4%) were called active. Inconclusive results, whose numbers are uncertain, are shown with a selection of clear calls. Calls come from the whole dose curve; as a rule, active = well fitted inhibition curve with a large enough effect; inconclusive = small, poorly fitted or top-dose-only effect; inactive = no such curve, though single readings can be large or run the other way. Potencies of inconclusive entries are doubtful fits and often do not repeat.

target: Bromodomain adjacent to zinc finger domain protein 2B (Homo sapiens) (UniProt Q9UIF8); experiment: qHTS Assay for Inhibitors of BAZ2B; conditions: AlphaScreen BAZ2B-H3K14Ac peptide displacement; series mostly up to 114 µM; note: nearly all actives have a fitted effect of over 60% in size
Outline: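 BAZ2B 50 nM plus b-H3(5-23)K14Ac 50 nM, PBS pH 7.4/0.01% Tween-20, 30 min RT; compound added (max 110 uM), 30 min RT; streptavidin donor/Ni-chelate acceptor beads 10 ug/mL final, 20 min dark; AlphaScreen read.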
Potency is the fitted concentration of half-maximal effect; tags give direction and shape of the fitted curve.

UniProt Q9UIF8, sequence (Q9UIF8 whole entry, looked up, the tested form may be a part): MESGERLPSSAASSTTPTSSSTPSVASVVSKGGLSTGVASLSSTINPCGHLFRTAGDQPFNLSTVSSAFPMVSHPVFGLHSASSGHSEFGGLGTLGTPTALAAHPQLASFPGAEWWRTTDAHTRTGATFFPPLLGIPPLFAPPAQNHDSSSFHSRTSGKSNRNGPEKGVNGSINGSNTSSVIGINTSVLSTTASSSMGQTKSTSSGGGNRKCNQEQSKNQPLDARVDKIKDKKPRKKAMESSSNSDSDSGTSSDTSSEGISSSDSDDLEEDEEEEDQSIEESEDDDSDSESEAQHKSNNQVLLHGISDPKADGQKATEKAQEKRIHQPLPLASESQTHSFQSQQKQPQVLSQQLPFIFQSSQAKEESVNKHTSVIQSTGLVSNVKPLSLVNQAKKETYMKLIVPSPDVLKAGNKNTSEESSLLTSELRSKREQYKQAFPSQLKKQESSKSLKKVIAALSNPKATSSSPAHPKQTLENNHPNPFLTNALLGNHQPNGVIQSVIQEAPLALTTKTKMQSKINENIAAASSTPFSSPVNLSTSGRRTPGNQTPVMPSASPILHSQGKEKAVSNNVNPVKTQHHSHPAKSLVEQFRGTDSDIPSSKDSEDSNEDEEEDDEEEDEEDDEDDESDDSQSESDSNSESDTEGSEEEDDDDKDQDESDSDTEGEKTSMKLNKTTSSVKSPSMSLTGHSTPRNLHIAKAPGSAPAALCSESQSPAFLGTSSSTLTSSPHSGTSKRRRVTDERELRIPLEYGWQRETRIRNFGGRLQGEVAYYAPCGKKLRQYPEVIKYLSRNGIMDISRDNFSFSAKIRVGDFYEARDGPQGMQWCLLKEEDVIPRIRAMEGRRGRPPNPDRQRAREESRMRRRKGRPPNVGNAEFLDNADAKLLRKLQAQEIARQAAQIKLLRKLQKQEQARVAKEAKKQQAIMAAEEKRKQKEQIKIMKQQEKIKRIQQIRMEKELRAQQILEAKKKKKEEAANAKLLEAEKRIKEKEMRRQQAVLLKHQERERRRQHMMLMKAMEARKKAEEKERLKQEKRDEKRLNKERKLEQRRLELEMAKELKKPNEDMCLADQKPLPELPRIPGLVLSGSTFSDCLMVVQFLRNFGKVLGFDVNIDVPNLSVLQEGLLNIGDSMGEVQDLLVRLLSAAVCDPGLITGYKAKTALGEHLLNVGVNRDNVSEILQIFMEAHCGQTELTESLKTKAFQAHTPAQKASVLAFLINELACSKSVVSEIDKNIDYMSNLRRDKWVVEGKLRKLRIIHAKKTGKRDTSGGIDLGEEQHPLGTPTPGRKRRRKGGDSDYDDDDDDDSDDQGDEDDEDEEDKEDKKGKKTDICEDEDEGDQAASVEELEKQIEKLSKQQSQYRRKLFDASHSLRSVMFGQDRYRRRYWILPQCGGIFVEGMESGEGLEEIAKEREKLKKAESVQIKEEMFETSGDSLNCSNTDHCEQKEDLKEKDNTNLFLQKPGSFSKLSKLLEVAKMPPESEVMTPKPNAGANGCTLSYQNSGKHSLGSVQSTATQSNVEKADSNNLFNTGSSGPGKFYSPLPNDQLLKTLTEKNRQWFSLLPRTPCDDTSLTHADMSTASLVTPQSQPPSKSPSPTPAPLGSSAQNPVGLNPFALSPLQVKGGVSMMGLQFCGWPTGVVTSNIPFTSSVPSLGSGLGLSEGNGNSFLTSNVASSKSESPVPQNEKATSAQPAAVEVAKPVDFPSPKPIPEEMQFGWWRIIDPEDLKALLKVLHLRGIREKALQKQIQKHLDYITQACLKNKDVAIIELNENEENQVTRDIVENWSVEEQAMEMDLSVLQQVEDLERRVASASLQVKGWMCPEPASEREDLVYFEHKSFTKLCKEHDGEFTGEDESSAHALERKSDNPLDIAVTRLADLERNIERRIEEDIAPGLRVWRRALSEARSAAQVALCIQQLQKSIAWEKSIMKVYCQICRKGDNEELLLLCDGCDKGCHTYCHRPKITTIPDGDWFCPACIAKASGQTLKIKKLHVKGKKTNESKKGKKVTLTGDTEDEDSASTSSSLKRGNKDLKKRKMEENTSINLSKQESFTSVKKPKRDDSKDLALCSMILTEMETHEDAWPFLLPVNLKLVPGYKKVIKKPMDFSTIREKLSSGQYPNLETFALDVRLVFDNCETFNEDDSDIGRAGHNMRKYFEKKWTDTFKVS

| Compound | Potency |
| --- | --- |
| O=C(NCCc1csc(-c2ccc(C(F)(F)F)cc2)n1)c1ccc(F)c(F)c1 | inactive |
| Cc1ccsc1/C=N/n1c(-c2ccccn2)n[nH]c1=S | active: 8.91 µM |
| COC(=O)c1c(-c2cccs2)csc1NC(=O)c1ccc(Br)cc1 | inactive |
| O=C(OCC(=O)N1CCN(C(=O)c2ccco2)CC1)c1sc2cc(F)ccc2c1Cl | inconclusive: 100 µM [inhibitor, single point] |
| C/C(=N/NC(=O)c1cc(Cl)ccc1O)C12CC3CC(CC(C3)C1)C2 | inconclusive: 39.8 µM [inhibitor, single point] |
| CC1CCc2sc(NC(=S)NC(=O)c3ccccc3)c(C#N)c2C1 (configuration not stated) | inconclusive: 31.6 µM [inhibitor, partial curve] |
| CCOC(=O)c1ccc(NC2c3ncccc3C(=O)N2Cc2ccc(F)cc2)cc1 (configuration not stated) | inconclusive: 89.1 µM [inhibitor, single point] |
| Cc1cccc(S(=O)(=O)Nc2ccc(-c3cn4ccccc4n3)cc2)c1 | inconclusive: 25.1 µM [inhibitor, full curve, poor fit] |
| Cc1[nH]n(-c2ccccc2)c(=O)c1C(c1cc(Cl)ccc1O)c1c(C)[nH]n(-c2ccccc2)c1=O | inconclusive: 35.5 µM [inhibitor, partial curve] |
| Cc1cccc(NC2=Nc3ccccc3N3C2=Nc2c(c(C)nn2-c2ccccc2)C3c2ccc(O)c(O)c2)c1 (configuration not stated) | inactive |
| Cc1cc(=O)n(C(C)C(=O)N2CCCc3ccccc32)c2c1c(C)nn2-c1ccccc1 (configuration not stated) | inconclusive: 89.1 µM [inhibitor, single point] |
| N#Cc1nc(-c2ccc(OCc3ccccc3)cc2)oc1NCCCn1ccnc1 | active: 17.8 µM |
| C#CCNC(=O)C1=C[C@@H](C2CCCCC2)C[C@@H](OCCCCO)O1 | inconclusive: 89.1 µM [inhibitor, single point] |
| COc1ccc(C)cc1NC(=O)CCc1c(C)nn(-c2ccc(N3CCCCC3)nn2)c1C | inconclusive: 0.891 µM [inhibitor, full curve, poor fit] |
| CCC(C)Sc1cc(-c2nc3ccccn3c2NC2CCCCC2)ccc1OC (configuration not stated) | inconclusive: 89.1 µM [inhibitor, single point] |
| COc1ccc(NC(=O)CN(c2cc(C)cc(C)c2)S(=O)(=O)c2c(C)n[nH]c2C)cc1 | inactive |
| Cn1c(-c2ccccc2)c(/C=N/NC(=O)c2cccnc2)c2ccccc21 | inconclusive: 7.94 µM [inhibitor, full curve] |
| CCN(CC)CCNc1ccc(CO)c2sc3ccccc3c(=O)c12 | inconclusive: 50.1 µM [inhibitor, partial curve] |
| Cc1c(C(=O)N2CCN(Cc3ccc4c(c3)OCO4)CC2)sc2ncnc(N3CCN(c4ccccc4)CC3)c12 | inconclusive: 8.91 µM [inhibitor, partial curve] |
| COc1ccc(-n2c(Cc3cccn3C)nnc2SCC(=O)Nc2ccc(F)cc2F)cc1 | inconclusive: 44.7 µM [inhibitor, partial curve] |
| COC(=O)C1=C(C(=O)OC)[C@@H]2N(Cc3ccccc3)c3ccccc3[C@@]23C[C@@H](C(=O)OC)N(C(=O)c2cccs2)C3=N1 | inconclusive: 1.12 µM [inhibitor, full curve, poor fit] |
| Cc1ccc(NC(=O)C(=O)NN)cc1 | inconclusive: 89.1 µM [inhibitor, single point] |
| COc1ccc(N2CCN(CCCNC(=O)Cn3c(=O)c4cccn4c4cccnc43)CC2)cc1 | active: 31.6 µM |

| Compound | Potency |
| --- | --- |
| Cc1cccc(N2CCN(C(=O)C3CCN(C(=O)c4cc5sccc5n4C)CC3)CC2)c1C | active: 22.4 µM |
| Cc1cccc(C(=O)NCCNC(=O)c2cnccn2)c1 | inactive |
| Cc1ccc(NCc2nc3ccccc3n2C)c(C)c1 | inconclusive: 50.1 µM [inhibitor, partial curve] |
| COc1ccc(CNC(=O)C(=O)NCCCn2ccnc2)cc1 | inactive |
| CCCC[N+](C)(C)CCC(=O)NC(C)(C)CS(=O)(=O)[O-] | active: 50.1 µM |
| Cc1c(C(=O)N2CCCCC2)c(S(=O)(=O)NCc2ccc(N(C)C)cc2)c(C)n1C | inconclusive: 50.1 µM [inhibitor, partial curve] |
| Cc1ccc(-c2cc(N)n(-c3ccc(C)cc3)n2)cc1 | inconclusive: 39.8 µM [inhibitor, partial curve] |
| CC1=CC(=Nc2c(C)n(C)n(-c3ccccc3)c2=O)C=C(C)C1=O | inactive |
| Cc1[nH]n2c(=O)cc(-c3ccc(Cl)cc3)nc2c1-c1ccccc1 | active: 31.6 µM |
| CSCc1ccc(C(=O)NC(C)c2ccc(-n3ccnc3)cc2)cc1 (configuration not stated) | inconclusive: 50.1 µM [inhibitor, partial curve] |
| O=S(=O)(CCc1ccncc1)c1ccc(Cl)cc1 | inconclusive: 79.4 µM [inhibitor, single point] |
| CCOC(=O)/C=C/C(=O)Nc1cccc([N+](=O)[O-])c1 | inconclusive: 63.1 µM [inhibitor, partial curve, poor fit] |
| COc1ccc(OC)c(C2CC(=O)N3CN(c4cccc(Cl)c4C)CSC3=C2C#N)c1 (configuration not stated) | active: 31.6 µM |
| N#C/C(=C\c1cccc([N+](=O)[O-])c1)c1ccccn1 | inconclusive: 70.8 µM [inhibitor, single point] |
| Cc1ccc(C(=O)NNc2ncnc3ccccc23)cc1 | active: 56.2 µM |
| O=C(N/N=C/c1ccc(O)c(O)c1O)/C(=C/c1ccc([N+](=O)[O-])cc1)NC(=O)c1ccccc1 | inconclusive: 79.4 µM [inhibitor, single point] |
| CC1CCCN(c2cc(N(C)CCO)c([N+](=O)[O-])c3nonc23)C1 (configuration not stated) | inconclusive: 79.4 µM [inhibitor, single point] |
| CCc1ccccc1NC(=O)c1cc(S(=O)(=O)N2CCc3ccccc32)ccc1F | inactive |
| CNc1ccc(Br)cc(C(=O)/C=C/c2ccc(OC)cc2OC)c1=O | active: 31.6 µM |
| COc1cc(/C=C(\C#N)c2nc3ccccc3[nH]2)ccc1OCc1ccc(F)cc1 | inconclusive: 79.4 µM [inhibitor, partial curve] |
| CCNc1ccc(S(=O)(=O)N(C)C)cc1[N+](=O)[O-] | inconclusive: 79.4 µM [inhibitor, single point] |
| CCCN(CCC)CCCNC(=O)c1cnn(-c2ccc(F)cc2)c1-n1cccc1 | inconclusive: 89.1 µM [inhibitor, single point] |
| Cn1nc(-c2ccccn2)nc2c(=O)n(C)c(=O)nc1-2 | active: 10 µM |

| Compound | Potency |
| --- | --- |
| COc1cc(N2CCCC2)c(OC)cc1/C=C(/C#N)c1ccc(Br)cc1 | active: 12.6 µM |
| Cc1ccc(NC(=O)C2(NC(=O)c3cccc(N4C(=O)CSC4c4ccccc4)c3)CCCCC2)cc1 (configuration not stated) | inconclusive: 100 µM [inhibitor, single point] |
| COc1ccc(OC)c(NC(=O)CSc2nnc(-c3ccco3)n2-c2ccc(C(=O)O)cc2)c1 | inconclusive: 50.1 µM [inhibitor, partial curve] |
| N#Cc1c(N)sc(=S)c2c1CCCCC2 | active: 50.1 µM |
| CC1(NC(=O)CC[N+](C)(C)CCO)CS(=O)(=O)CC1S(=O)(=O)[O-] (configuration not stated) | active: 50.1 µM |
| O=C(O)c1ccc(/C=C2\SC(=S)N(NC(=O)c3ccc(Br)cc3)C2=O)cc1 | inconclusive: 70.8 µM [inhibitor, single point] |
| CCc1nn2c(=O)cc(COC(=O)c3ccc(NC(=O)CCc4ccccc4)cc3)nc2s1 | inactive |
| Cc1nc2scc(C)n2c(=O)c1S(=O)(=O)Nc1ccc(N2CCN(S(C)(=O)=O)CC2)cc1 | inconclusive: 50.1 µM [inhibitor, partial curve] and inconclusive: 56.2 µM [inhibitor, partial curve] |
| CC(C)(C)c1ccc(/C=N/NC(=O)Cc2c[nH]c3ccccc23)cc1 | inconclusive: 50.1 µM [inhibitor, partial curve] |
| COc1ccc(NC(=S)Nc2cc(-c3ccccc3)[nH]n2)cc1Cl | inconclusive: 31.6 µM [inhibitor, full curve] |
| Cc1ccc(NC(=O)Nc2cc(C)on2)cc1 | inconclusive: 44.7 µM [inhibitor, partial curve] |
| CCOC(=O)N1CCN(S(=O)(=O)c2ccc(C(=O)NNc3nc4cc(C)cc(C)c4s3)cc2)CC1 | inconclusive: 7.94 µM [inhibitor, full curve] |
| O=C(C[n+]1ccccc1)N/N=C/c1c(F)cccc1Cl | active: 56.2 µM |
| CCOC(=O)/C=C/C(=O)OCC(=O)Nc1ccc(OC)c(Cl)c1 | inactive |
| COc1ccccc1NC(=O)C1=C(C)Nc2c(C(=O)Nc3ccc(C)cc3)cnn2C1c1cccc(OC)c1OC (configuration not stated) | inactive |
| O=C(c1cnc2ccc(Cl)cc2c1Cl)N1CCOCC1 | inconclusive: 79.4 µM [inhibitor, single point] |
| CC(NC(=O)C(=O)NCCN1CCN(C(=O)c2ccc([N+](=O)[O-])cc2)CC1)c1ccccc1 (configuration not stated) | inconclusive: 3.98 µM [inhibitor, single point] |
| COc1ccc(N(Cc2ccccc2)C(=O)c2nc(S(C)(=O)=O)ncc2Cl)cc1 | inactive |
| O=[N+]([O-])c1ccc(S(=O)(=O)Nc2nc(-c3ccccc3)cs2)cc1 | inconclusive: 50.1 µM [inhibitor, partial curve] |
| C=CCN1C(=O)/C(=C\c2ccc(OC(=O)c3ccco3)c(OC)c2)SC1=S | active: 10 µM |
| C=C(C)C(=O)Nc1cccc(C2=NOC3(C2)C[C@H](C(N)=O)N(C(=O)c2ccccc2C(=O)c2ccccc2)C3)c1 (some centres not stated) | active: 10 µM |
